# From the supplement of paper PMC8728848
# The other results are listed elsewhere or left out.
# B1: PX14343B-bfa-546-20-546 (Bacteroides fragilis) (protein)
# chain: CDLERYPLTDLSEETFWNSESNAELALTSLYRGSLTDGVEYNPSDWWSYHGMIMMEHLSDNAFDRRGENNPFFKISSGNLTADNAFIKRYWETSYKRIGYCNRFLVGIQNSSESEKKTRMIAEARFLRATQYFYLASYFKNVPLVENVLTGEEANNVTKTSQADILKWCVTEFTAAAADLPRFSAIPAGEAGRACKQAALAFLGRTCMLQKDWKSGAKAFHDIMELGDNAINANYQELFYPSTGTSNKENIFYIQYLENYLGTGLPQHALSAKDGGWSLVNPAADLYESYEFKDGTPFSYDDPRYDPSNLGKDRDPRLDYTIYYNGAIFMGTEYKMSPDYSAAKKEKLDYTSEASRTGFMMRKYFEESTPINDVQSANGLTPVIRYAEVLLGYLECLVEDNQTITQGILDETINAVRGRASVNMPPVTEVTPAKLREIVRHERRIELAMEGIRYWDIMRWGIAHEVLSQKIWGAPYPGSTQYATTTKEVDPTGNYRWYVGKRAFRNPTDYTWPIPQSEQNINPNLRD
# Columns and labels:
# Assay in all cases: glycan array binding signal (z-score within array); higher = stronger binding
# Conditions in all cases: glycan notation: IUPAC condensed, linker removed
# [1] = biological target: Neu5Ac(a2-6)Gal(b1-4)GlcNAc(b1-2)Man(a1-3)[Neu5Ac(a2-3)Gal(b1-4)GlcNAc(b1-2)Man(a1-6)]Man(b1-4)GlcNAc(b1-4)GlcNAc
# Summary of the method: (§1)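 Columns mapping to the same glycan were averaged after glycan names were converted to IUPAC-condensed notation. The data come from 3228 arrays in the Consortium for Functional Glycomics database, limited to those with an available protein sequence. Binding is reported as a within-array Z-score averaged across arrays of one protein sequence and across linkers.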
# [2] = biological target: Neu5Ac(a2-6)Gal(b1-4)GlcNAc(b1-2)Man(a1-3)[Neu5Ac(a2-6)Gal(b1-4)GlcNAc(b1-2)Man(a1-6)]Man(b1-4)GlcNAc(b1-4)GlcNAc
# Summary of the method: as §1
# [3] = biological target: Neu5Ac(a2-6)Gal(b1-4)GlcNAc(b1-2)Man(a1-3)[Neu5Ac(a2-6)Gal(b1-4)GlcNAc(b1-2)Man(a1-6)]Man(b1-4)GlcNAc(b1-4)[Fuc(a1-6)]GlcNAc
# Summary of the method: as §1
# [4] = biological target: Neu5Ac(a2-6)Gal(b1-4)GlcNAc(b1-2)Man(a1-6)Man(b1-4)GlcNAc(b1-4)GlcNAc
# Summary of the method: as §1
# [5] = biological target: Neu5Ac(a2-6)Gal(b1-4)GlcNAc(b1-2)Man(a1-6)[Gal(b1-4)GlcNAc(b1-2)Man(a1-3)]Man(b1-4)GlcNAc(b1-4)GlcNAc
# Summary of the method: as §1
# [6] = biological target: Neu5Ac(a2-6)Gal(b1-4)GlcNAc(b1-2)Man(a1-6)[GlcNAc(b1-2)Man(a1-3)]Man(b1-4)GlcNAc(b1-4)GlcNAc
# Summary of the method: as §1
# [7] = biological target: Neu5Ac(a2-6)Gal(b1-4)GlcNAc(b1-2)Man(a1-6)[Man(a1-3)]Man(b1-4)GlcNAc(b1-4)GlcNAc
# Summary of the method: as §1
# [8] = biological target: Neu5Ac(a2-6)Gal(b1-4)GlcNAc(b1-2)[Neu5Ac(a2-6)Gal(b1-4)GlcNAc(b1-4)]Man(a1-3)[GlcNAc(b1-4)][Neu5Ac(a2-6)Gal(b1-4)GlcNAc(b1-2)[Neu5Ac(a2-6)Gal(b1-4)GlcNAc(b1-6)]Man(a1-6)]Man(b1-4)GlcNAc(b1-4)GlcNAc
# Summary of the method: as §1
# [9] = biological target: Neu5Ac(a2-6)Gal(b1-4)GlcNAc(b1-2)[Neu5Ac(a2-6)Gal(b1-4)GlcNAc(b1-4)]Man(a1-3)[GlcNAc(b1-4)][Neu5Ac(a2-6)Gal(b1-4)GlcNAc(b1-4)Man(a1-6)]Man(b1-4)GlcNAc(b1-4)GlcNAc
# Summary of the method: as §1
# [10] = biological target: Neu5Ac(a2-6)Gal(b1-4)GlcNAc(b1-2)[Neu5Ac(a2-6)Gal(b1-4)GlcNAc(b1-6)]Man(a1-6)[Neu5Ac(a2-6)Gal(b1-4)GlcNAc(b1-2)Man(a1-3)][GlcNAc(b1-4)]Man(b1-4)GlcNAc(b1-4)GlcNAc
# Summary of the method: as §1
# [11] = biological target: Neu5Ac(a2-6)Gal(b1-4)GlcNAc(b1-3)Gal(b1-3)GlcNAc
# Summary of the method: as §1
# [12] = biological target: Neu5Ac(a2-6)Gal(b1-4)GlcNAc(b1-3)Gal(b1-4)GlcNAc
# Summary of the method: as §1
# [13] = biological target: Neu5Ac(a2-6)Gal(b1-4)GlcNAc(b1-3)Gal(b1-4)GlcNAc(b1-2)Man(a1-3)[Neu5Ac(a2-6)Gal(b1-4)GlcNAc(b1-3)Gal(b1-4)GlcNAc(b1-2)Man(a1-6)]GalNAc
# Summary of the method: as §1
# [14] = biological target: Neu5Ac(a2-6)Gal(b1-4)GlcNAc(b1-3)Gal(b1-4)GlcNAc(b1-3)Gal(b1-4)GlcNAc
# Summary of the method: as §1
# [15] = biological target: Neu5Ac(a2-6)Gal(b1-4)GlcNAc(b1-3)Gal(b1-4)GlcNAc(b1-3)Gal(b1-4)GlcNAc(b1-2)Man(a1-3)[Neu5Ac(a2-6)Gal(b1-4)GlcNAc(b1-3)Gal(b1-4)GlcNAc(b1-3)Gal(b1-4)GlcNAc(b1-2)Man(a1-6)]GalNAc
# Summary of the method: as §1
# [16] = biological target: Neu5Ac(a2-6)Gal(b1-4)GlcNAc(b1-3)Gal(b1-4)GlcNAc(b1-3)GalNAc
# Summary of the method: as §1
# [17] = biological target: Neu5Ac(a2-6)Gal(b1-4)GlcNAc(b1-3)Gal(b1-4)GlcNAc(b1-3)[Neu5Ac(a2-6)Gal(b1-4)GlcNAc(b1-3)Gal(b1-4)GlcNAc(b1-6)]GalNAc
# Summary of the method: as §1
# [18] = biological target: Neu5Ac(a2-6)Gal(b1-4)GlcNAc(b1-3)Gal(b1-4)GlcNAc(b1-6)[Gal(b1-3)]GalNAc
# Summary of the method: as §1
# [19] = biological target: Neu5Ac(a2-6)Gal(b1-4)GlcNAc(b1-3)Gal(b1-4)[Fuc(a1-3)]GlcNAc(b1-3)Gal(b1-4)[Fuc(a1-3)]GlcNAc
# Summary of the method: as §1
# [20] = biological target: Neu5Ac(a2-6)Gal(b1-4)GlcNAc(b1-3)GalNAc
# Summary of the method: as §1
# [21] = biological target: Neu5Ac(a2-6)Gal(b1-4)GlcNAc(b1-3)[Neu5Ac(a2-6)Gal(b1-4)GlcNAc(b1-6)]GalNAc
# Summary of the method: as §1
# [22] = biological target: Neu5Ac(a2-6)Gal(b1-4)GlcNAc(b1-6)GalNAc
# Summary of the method: as §1
# [23] = biological target: Neu5Ac(a2-6)Gal(b1-4)GlcNAc(b1-6)[Gal(b1-3)GlcNAc(b1-3)]Gal(b1-4)Glc
# Summary of the method: as §1
# [24] = biological target: Neu5Ac(a2-6)Gal(b1-4)GlcNAc(b1-6)[Gal(b1-3)]GalNAc
# Summary of the method: as §1
# [25] = biological target: Neu5Ac(a2-6)Gal(b1-4)GlcNAc6S
# Summary of the method: as §1
# Neu5Ac(a2-6)GalNAc = biological target: Neu5Ac(a2-6)GalNAc
# Summary of the method: as §1
# [26] = biological target: Neu5Ac(a2-6)GalNAc(b1-4)GlcNAc
# Summary of the method: as §1
# [27] = biological target: Neu5Ac(a2-6)GalNAc(b1-4)GlcNAc6S
# Summary of the method: as §1
# [28] = biological target: Neu5Ac(a2-6)GlcNAc(b1-4)GlcNAc
# Summary of the method: as §1
# [29] = biological target: Neu5Ac(a2-6)GlcNAc(b1-4)GlcNAc(b1-4)GlcNAc
# Summary of the method: as §1
binder,measurement,setting,value
B1,glycan array binding signal (z-score),[1],-0.127
same,glycan array binding signal (z-score),[2],-0.125
same,glycan array binding signal (z-score),[3],-0.116
same,glycan array binding signal (z-score),[4],-0.119
same,glycan array binding signal (z-score),[5],-0.096
same,glycan array binding signal (z-score),[6],-0.134
same,glycan array binding signal (z-score),[7],-0.125
same,glycan array binding signal (z-score),[8],-0.12
same,glycan array binding signal (z-score),[9],-0.137
same,glycan array binding signal (z-score),[10],-0.13
same,glycan array binding signal (z-score),[11],-0.114
same,glycan array binding signal (z-score),[12],-0.114
same,glycan array binding signal (z-score),[13],-0.127
same,glycan array binding signal (z-score),[14],-0.126
same,glycan array binding signal (z-score),[15],-0.114
same,glycan array binding signal (z-score),[16],-0.124
same,glycan array binding signal (z-score),[17],-0.113
same,glycan array binding signal (z-score),[18],-0.112
same,glycan array binding signal (z-score),[19],-0.108
same,glycan array binding signal (z-score),[20],-0.107
same,glycan array binding signal (z-score),[21],-0.129
same,glycan array binding signal (z-score),[22],-0.123
same,glycan array binding signal (z-score),[23],-0.126
same,glycan array binding signal (z-score),[24],-0.126
same,glycan array binding signal (z-score),[25],-0.125
same,glycan array binding signal (z-score),Neu5Ac(a2-6)GalNAc,-0.133
same,glycan array binding signal (z-score),[26],-0.118
same,glycan array binding signal (z-score),[27],-0.082
same,glycan array binding signal (z-score),[28],-0.117
same,glycan array binding signal (z-score),[29],-0.131
